Some of these densities may be calculated back from excess volumes.
Experiment: xn = mol fraction of the nth substance listed
Conditions: 101 kPa

CCO + CC(=O)[O-].CC[n+]1ccn(C)c1
mass density (298.15 K, x1 = 1): 785.1 kg/m3 | mass density (313.15 K, x1 = 1): 772 kg/m3 | mass density (328.15 K, x1 = 1): 758.6 kg/m3 | mass density (343.15 K, x1 = 1): 744.5 kg/m3

CC[n+]1ccn(C)c1.N#C[N-]C#N + O
mass density (298.15 K, x2 = 0.1299): 1099.7 kg/m3 | mass density (298.15 K, x2 = 0.5429): 1086.9 kg/m3 | mass density (298.15 K, x2 = 0.6534): 1081 kg/m3 | mass density (298.15 K, x2 = 0.7355): 1073.6 kg/m3 | mass density (298.15 K, x2 = 0.953): 1027.5 kg/m3 | mass density (313.15 K, x2 = 0): 1092.1 kg/m3 | mass density (313.15 K, x2 = 0.1299): 1089.8 kg/m3 | mass density (313.15 K, x2 = 0.3042): 1085.5 kg/m3 | mass density (313.15 K, x2 = 0.4308): 1081.5 kg/m3 | mass density (313.15 K, x2 = 0.5429): 1076.7 kg/m3 | mass density (313.15 K, x2 = 0.6534): 1070.7 kg/m3 | mass density (313.15 K, x2 = 0.7355): 1063.2 kg/m3 | mass density (313.15 K, x2 = 0.7944): 1056.3 kg/m3 | mass density (328.15 K, x2 = 0): 1082.4 kg/m3 | mass density (328.15 K, x2 = 0.1299): 1080 kg/m3 | mass density (328.15 K, x2 = 0.2248): 1077.8 kg/m3 | mass density (328.15 K, x2 = 0.3042): 1075.7 kg/m3 | mass density (328.15 K, x2 = 0.4308): 1071.5 kg/m3 | mass density (328.15 K, x2 = 0.5429): 1066.6 kg/m3 | mass density (328.15 K, x2 = 0.6534): 1060.4 kg/m3 | mass density (328.15 K, x2 = 0.7355): 1052.8 kg/m3 | mass density (328.15 K, x2 = 0.8803): 1031.2 kg/m3 | mass density (328.15 K, x2 = 0.953): 1009.9 kg/m3 | mass density (343.15 K, x2 = 0.1299): 1070.4 kg/m3 | mass density (343.15 K, x2 = 0.2248): 1068.1 kg/m3 | mass density (343.15 K, x2 = 0.3042): 1065.9 kg/m3 | mass density (343.15 K, x2 = 0.4308): 1061.7 kg/m3 | mass density (343.15 K, x2 = 0.5429): 1056.6 kg/m3 | mass density (343.15 K, x2 = 0.6534): 1050.2 kg/m3 | mass density (343.15 K, x2 = 0.7355): 1042.4 kg/m3 | mass density (343.15 K, x2 = 0.7944): 1035.4 kg/m3 | mass density (343.15 K, x2 = 0.8803): 1020.7 kg/m3 | mass density (343.15 K, x2 = 0.953): 1000.1 kg/m3

CC[n+]1ccn(C)c1.N#C[N-]C#N + CCO
mass density (298.15 K, x2 = 0): 1102 kg/m3 | mass density (298.15 K, x2 = 0.102): 1091.3 kg/m3 | mass density (298.15 K, x2 = 0.1981): 1079.7 kg/m3 | mass density (298.15 K, x2 = 0.279): 1069.3 kg/m3 | mass density (298.15 K, x2 = 0.3596): 1055.7 kg/m3 | mass density (298.15 K, x2 = 0.4741): 1033.9 kg/m3 | mass density (298.15 K, x2 = 0.6867): 975.2 kg/m3 | mass density (298.15 K, x2 = 0.8503): 901.4 kg/m3 | mass density (298.15 K, x2 = 0.9327): 846.4 kg/m3 | mass density (313.15 K, x2 = 0.102): 1081.3 kg/m3 | mass density (313.15 K, x2 = 0.1981): 1069.7 kg/m3 | mass density (313.15 K, x2 = 0.279): 1059.2 kg/m3 | mass density (313.15 K, x2 = 0.4741): 1023.7 kg/m3 | mass density (313.15 K, x2 = 0.6028): 991.4 kg/m3 | mass density (313.15 K, x2 = 0.6867): 964.5 kg/m3 | mass density (313.15 K, x2 = 0.7678): 931.9 kg/m3 | mass density (313.15 K, x2 = 0.8503): 890 kg/m3 | mass density (313.15 K, x2 = 0.9327): 834.2 kg/m3 | mass density (328.15 K, x2 = 0.102): 1071.6 kg/m3 | mass density (328.15 K, x2 = 0.1981): 1059.9 kg/m3 | mass density (328.15 K, x2 = 0.279): 1049.3 kg/m3 | mass density (328.15 K, x2 = 0.4741): 1013.6 kg/m3 | mass density (328.15 K, x2 = 0.6028): 981 kg/m3 | mass density (328.15 K, x2 = 0.6867): 953.9 kg/m3 | mass density (328.15 K, x2 = 0.7678): 920.9 kg/m3 | mass density (328.15 K, x2 = 0.8503): 878.5 kg/m3 | mass density (328.15 K, x2 = 0.9327): 822 kg/m3 | mass density (343.15 K, x2 = 0): 1072.8 kg/m3 | mass density (343.15 K, x2 = 0.102): 1061.9 kg/m3 | mass density (343.15 K, x2 = 0.279): 1039.6 kg/m3 | mass density (343.15 K, x2 = 0.3596): 1025.8 kg/m3 | mass density (343.15 K, x2 = 0.4741): 1003.6 kg/m3 | mass density (343.15 K, x2 = 0.6028): 970.7 kg/m3 | mass density (343.15 K, x2 = 0.6867): 943.3 kg/m3 | mass density (343.15 K, x2 = 0.7678): 909.9 kg/m3 | mass density (343.15 K, x2 = 0.8503): 866.9 kg/m3 | mass density (343.15 K, x2 = 0.9327): 809.4 kg/m3

O + CC(=O)[O-].CC[n+]1ccn(C)c1
mass density (328.15 K, x1 = 1): 985.7 kg/m3 | mass density (343.15 K, x1 = 1): 977.8 kg/m3

CC(=O)[O-].CC[n+]1ccn(C)c1 + O
mass density (298.15 K, x2 = 0.222): 1099.6 kg/m3 | mass density (298.15 K, x2 = 0.3233): 1101.3 kg/m3 | mass density (298.15 K, x2 = 0.6805): 1105.9 kg/m3 | mass density (298.15 K, x2 = 0.7482): 1104 kg/m3 | mass density (298.15 K, x2 = 0.8134): 1097.9 kg/m3 | mass density (298.15 K, x2 = 0.9067): 1072.5 kg/m3 | mass density (313.15 K, x2 = 0): 1088.6 kg/m3 | mass density (313.15 K, x2 = 0.0992): 1089.2 kg/m3 | mass density (313.15 K, x2 = 0.3233): 1092.3 kg/m3 | mass density (313.15 K, x2 = 0.4207): 1094 kg/m3 | mass density (313.15 K, x2 = 0.6135): 1097.1 kg/m3 | mass density (313.15 K, x2 = 0.6805): 1096.1 kg/m3 | mass density (313.15 K, x2 = 0.7482): 1094 kg/m3 | mass density (313.15 K, x2 = 0.8134): 1087.7 kg/m3 | mass density (313.15 K, x2 = 0.9067): 1062.8 kg/m3 | mass density (328.15 K, x2 = 0): 1079.5 kg/m3 | mass density (328.15 K, x2 = 0.222): 1081.4 kg/m3 | mass density (328.15 K, x2 = 0.3233): 1083.2 kg/m3 | mass density (328.15 K, x2 = 0.5408): 1087.2 kg/m3 | mass density (328.15 K, x2 = 0.6135): 1087.6 kg/m3 | mass density (328.15 K, x2 = 0.7482): 1084 kg/m3 | mass density (328.15 K, x2 = 0.9067): 1052.9 kg/m3 | mass density (343.15 K, x2 = 0): 1070.5 kg/m3 | mass density (343.15 K, x2 = 0.0992): 1071.1 kg/m3 | mass density (343.15 K, x2 = 0.3233): 1074.2 kg/m3 | mass density (343.15 K, x2 = 0.4207): 1075.9 kg/m3 | mass density (343.15 K, x2 = 0.6135): 1078.2 kg/m3 | mass density (343.15 K, x2 = 0.7482): 1074.1 kg/m3 | mass density (343.15 K, x2 = 0.8134): 1067.1 kg/m3 | mass density (343.15 K, x2 = 0.9067): 1042.5 kg/m3

CC(=O)[O-].CC[n+]1ccn(C)c1 + CCO
mass density (298.15 K, x2 = 0): 1097.8 kg/m3 | mass density (298.15 K, x2 = 0.1059): 1086.8 kg/m3 | mass density (298.15 K, x2 = 0.1638): 1079.7 kg/m3 | mass density (298.15 K, x2 = 0.2471): 1068.1 kg/m3 | mass density (298.15 K, x2 = 0.3504): 1051.2 kg/m3 | mass density (298.15 K, x2 = 0.4165): 1038.7 kg/m3 | mass density (298.15 K, x2 = 0.4824): 1024.9 kg/m3 | mass density (298.15 K, x2 = 0.5572): 1006.9 kg/m3 | mass density (298.15 K, x2 = 0.6646): 975.1 kg/m3 | mass density (298.15 K, x2 = 0.7494): 945.2 kg/m3 | mass density (313.15 K, x2 = 0): 1088.6 kg/m3 | mass density (313.15 K, x2 = 0.1638): 1070.3 kg/m3 | mass density (313.15 K, x2 = 0.3504): 1041.6 kg/m3 | mass density (313.15 K, x2 = 0.4165): 1029 kg/m3 | mass density (313.15 K, x2 = 0.4824): 1015.1 kg/m3 | mass density (313.15 K, x2 = 0.6646): 964.9 kg/m3 | mass density (313.15 K, x2 = 0.8666): 866.4 kg/m3 | mass density (328.15 K, x2 = 0.1059): 1068.4 kg/m3 | mass density (328.15 K, x2 = 0.1638): 1061.1 kg/m3 | mass density (328.15 K, x2 = 0.2471): 1049.4 kg/m3 | mass density (328.15 K, x2 = 0.3504): 1032.1 kg/m3 | mass density (328.15 K, x2 = 0.4165): 1019.5 kg/m3 | mass density (328.15 K, x2 = 0.4824): 1005.4 kg/m3 | mass density (328.15 K, x2 = 0.5572): 987 kg/m3 | mass density (328.15 K, x2 = 0.6646): 954.7 kg/m3 | mass density (328.15 K, x2 = 0.7494): 924.2 kg/m3 | mass density (328.15 K, x2 = 0.8666): 854.8 kg/m3 | mass density (343.15 K, x2 = 0): 1070.5 kg/m3 | mass density (343.15 K, x2 = 0.1638): 1052 kg/m3 | mass density (343.15 K, x2 = 0.2471): 1040.1 kg/m3 | mass density (343.15 K, x2 = 0.4824): 995.8 kg/m3 | mass density (343.15 K, x2 = 0.5572): 977.3 kg/m3 | mass density (343.15 K, x2 = 0.6646): 944.6 kg/m3 | mass density (343.15 K, x2 = 0.7494): 913.7 kg/m3 | mass density (343.15 K, x2 = 0.8666): 843.2 kg/m3

CCO + CC[n+]1ccn(C)c1.N#C[N-]C#N
mass density (298.15 K, x1 = 1): 785.1 kg/m3 | mass density (343.15 K, x1 = 1): 744.5 kg/m3

Reference: a compilation of properties of binary mixtures (doi:10.1016/j.jct.2012.02.027)
